Screen size: about 150,000 compounds; about 540 (0.36%) showed an effect of 50% or more. The list shows a part of the results.

As usually defined, the % Inhibition is the change of the read-out against control, counted positive when it falls.

This test concerns Plasmodium falciparum. Description: Primary screen in NF54 nanoGlo assay, in single point, at 2uM, 72h; a lower Z score goes with more inhibition. It is filed as functional, Erythrocyte. The settings on record: timepoint 72 hour.
Take `CC(C(=O)O)c1cccc(NC(=O)C2CCCOC2)c1` (stereo unspecified): the “% Inhibition” value is listed as -10% and the Z score worked out at 1.52.
Take `CC(=O)Nc1ccc(-c2noc([C@H]3CCCN(C(=O)c4ccc(C(C)(C)C)cc4)C3)n2)cc1`: the “% Inhibition” value is -5% and the Z score was 0.62.
Taken in the same sequence, the figures for `COc1ccc([C@H](C)NC(=O)c2c(C)noc2-c2ccccc2Cl)cc1` were -5% and 0.73.
For the compound `COc1cccc(-c2nc(C)c(C(=O)Nc3cccc4[nH]ccc34)s2)c1`, the “% Inhibition” value is reported as -1% and the Z score is on record as 0.1.
In the case of `O[C@H]1Cc2ccccc2C12CCN(Cc1nc(-c3ccncc3)no1)CC2`, the “% Inhibition” value is on record as -7% and the Z score was found to be 0.85.
In the case of `C[C@H]1CN(C(=O)c2ccc(Cl)cc2)C[C@]1(O)C1CC1`, the “% Inhibition” value is -8% and the Z score stood at 1.32.
As for `Cc1ccc(S(=O)(=O)N2CCc3c(c4ccccc4n3CC3CC3)C2)cc1`, the “% Inhibition” value is -9% and the Z score came out at 1.23.
Consider `Cc1ccc(CN2CCC[C@@]3(CO)CN(c4ncccc4C(N)=O)CC[C@H]23)o1`, for which the “% Inhibition” value is recorded as -7% and the Z score came to 0.82.
As for `CN(C)c1ncc(CN2CCC[C@H](CS(C)(=O)=O)C2)cn1`, the “% Inhibition” value was 4% and the Z score is on record as -0.68.
Regarding `COc1ccc(-c2ccc(N3CCN(C(=O)CN(C[C@H]4CCCO4)C(=O)CC(C)C)CC3)nn2)c(OC)c1`, the “% Inhibition” value is reported as -8% and the Z score is listed as 0.76.
As to `Clc1ccc(Cl)c(-c2ccc(CNCc3ccc4c(c3)OCO4)o2)c1`, the “% Inhibition” value was -10% and the Z score is recorded as 1.46.
`O=C(c1cccc(Cl)c1)N1C[C@@H]2CN(CC3CCC3)C[C@]2(C(=O)O)C1`: the “% Inhibition” value is given as -7% and the Z score was determined as 1.06.
Taken in the same sequence, the figures for `Cc1ccc(C)c(C(=O)NC(C)(C)C)c1` were -5% and 0.57.
Take `CCCc1noc(CN2C(=O)[C@@H]3CCCN3C2=O)n1`: the “% Inhibition” value was 0% and the Z score worked out at 0.01.
For `CCCOc1c(Cl)cc(CN2CC[C@H](c3cnn(C)c3)C2)cc1OCC`, the “% Inhibition” value worked out at 2% and the Z score is -0.22.
Take `CCCCc1c(C)[nH]c2nc(N(Cc3cccc(OC)c3)C(=O)c3ccc(C)cc3)nn2c1=O`: the “% Inhibition” value is 9% and the Z score is reported as -1.13.
Consider `Cc1cnc(=O)n(CC(=O)N2CCN(c3ccccc3F)CC2)c1`, for which the “% Inhibition” value is -1% and the Z score was found to be 0.07.
Taken in the same sequence, the figures for `Cc1nc(C)c(C(=O)N2C[C@H]3CN(Cc4ccccc4)C[C@@]3(CN(C)C)C2)s1` were -12% and 1.62.
As to `CCN(CCCCO)C(=O)Nc1ccc(C)c(OC)c1`, the “% Inhibition” value is given as -2% and the Z score came to 0.2.
On to `CN(C)c1ccc(NC(=O)N(Cc2ccco2)C[C@H]2CCCO2)cn1`, for which the “% Inhibition” value is -3% and the Z score came out at 0.51.
In the case of `COc1ccc(C(=O)N2C[C@@H]3CC[C@H]2CN(Cc2ccccn2)C3)o1`, the “% Inhibition” value was found to be 8% and the Z score was -1.51.
For the compound `O=C(O)C(c1cccc(Cl)c1)N1CCC(Cc2nccs2)C1` (stereo unspecified), the “% Inhibition” value was -1% and the Z score is 0.1.
Turning to `CCN(C)c1ccccc1CNC(=O)COCc1nc(C)no1`, the “% Inhibition” value is -1% and the Z score stood at 0.09.
Taken in the same sequence, the figures for `O=C(c1cccc(S(=O)(=O)N2CCCC2)c1)n1nnc2ccccc21` were -9% and 1.
Regarding `O=C(c1cc(Cl)c2c(c1)OCCCO2)N(C[C@H]1CCOC1)c1ccccc1`, the “% Inhibition” value was -5% and the Z score stood at 0.62.
For `Cc1ccc(C(=O)N2CCC(N3CCCCC3)CC2)c(C2CCN(C(=O)Nc3cccc(Cl)c3)CC2)n1`, the “% Inhibition” value is given as -1% and the Z score was 0.12.
For `CCN1CCN(S(=O)(=O)c2ccc(C)cc2C)c2cccnc21` the same measures were -11% and 1.31.
For the compound `Cc1cc(C)cc(NC(=O)N2CCC(OC3CCN(S(C)(=O)=O)CC3)CC2)c1`, the “% Inhibition” value was -9% and the Z score amounted to 1.08.
For the compound `O=C(CCS(=O)(=O)c1ccccc1)N1C[C@H](O)[C@@H](F)C1`, the “% Inhibition” value is -12% and the Z score was found to be 1.35.
As to `CN(C)C[C@@H]1[C@H]2CN(C(=O)c3cc4ccccc4s3)C[C@@H]12`, the “% Inhibition” value is on record as -2% and the Z score amounted to 0.29.
`COC1CC(NCc2cc(C)no2)C12CCC2` (stereo unspecified): the “% Inhibition” value was -1% and the Z score came out at 0.11.
On to `Cc1cc(N2C[C@H](OC(C)C)[C@@H](O)C2)nc(N)n1`, for which the “% Inhibition” value was 11% and the Z score is reported as -1.81.
For the compound `Cc1nn(C)c(C)c1CC(=O)Nc1ncccc1O`, the “% Inhibition” value is listed as -8% and the Z score is 1.43.
In the case of `O=S(=O)(CC1CCCC1)NCCCN1CCCC[C@@H]1CO`, the “% Inhibition” value is recorded as -12% and the Z score worked out at 1.13.
Consider `Cc1coc(C(=O)N2CCC[C@H](NCc3ccccc3)C2)c1C`, for which the “% Inhibition” value was determined as 1% and the Z score was -0.2.
`O=C1c2ccccc2C(=O)N1C1CCC(N[C@H]2CCOC3(CCCC3)C2)CC1` (stereo partly specified): the “% Inhibition” value was -9% and the Z score is 1.52.
As to `COc1cc(OC)cc(C(=O)N2CC[C@@]3(CCCN(Cc4[nH]cnc4C)C3)C2)c1`, the “% Inhibition” value is listed as -2% and the Z score came out at 0.33.
Taken in the same sequence, the figures for `CC(C)c1nccc(N2CCC[C@H](n3cc(CO)nn3)C2)n1` were -11% and 1.79.
Consider `Cc1csc(C2(NC(=O)CCc3cnn(C)c3)CCCCCC2)n1`, for which the “% Inhibition” value was found to be 13% and the Z score is on record as -1.7.
Taken in the same sequence, the figures for `CC(C)OC1(C(=O)N2C[C@@H]3OCCN(C)[C@@H]3C2)CCOC1` (stereo partly specified) were -36% and 4.22.
For `N#CCN(CC#N)C(=O)Cc1c(F)cccc1Cl`, the “% Inhibition” value is -6% and the Z score is recorded as 1.15.
`Cc1c(Cl)cccc1NC(=O)C(C)N1CCC(C2(C)NC(=O)NC2=O)CC1` (stereo unspecified): the “% Inhibition” value is reported as -4% and the Z score was determined as 0.49.
For the compound `Fc1ccccc1-c1cc(NCCCn2cncn2)n2nccc2n1`, the “% Inhibition” value is listed as -5% and the Z score is recorded as 0.88.
`COc1cc(O)ccc1[C@H]1Nc2ccccc2-n2c(-c3ccccc3)c3c(=O)n(C)c(=O)n(C)c3c21`: the “% Inhibition” value worked out at 4% and the Z score is on record as -0.71.
Taken in the same sequence, the figures for `Cc1ccc(CC2(CCC(=O)N3CCCC(C(=O)c4ccccc4)C3)CCC(=O)N2)cc1` (stereo unspecified) were 14% and -1.82.
Regarding `CCCCNC(=O)Cc1noc(CCCOc2cccc(C)c2)n1`, the “% Inhibition” value is -18% and the Z score was 2.79.
`COc1cccc2c1CN(Cc1n[nH]c3c1COCC3)CC2`: the “% Inhibition” value was determined as 0% and the Z score is 0.03.
On to `CCc1noc(CCNC(=O)N(C)CCCN2CCCCCC2)n1`, for which the “% Inhibition” value is 10% and the Z score is -1.4.
On to `CO[C@H]1CCCOC12CCN(C(=O)c1cn3ccccc3n1)CC2`, for which the “% Inhibition” value was -16% and the Z score came to 1.62.
For the compound `Cc1nnnn1CCc1ncnn1Cc1c(F)cccc1Cl`, the “% Inhibition” value is listed as -11% and the Z score is listed as 1.96.
As for `CC[C@@H](CO)NC(=O)NC1CCOC(C)C1` (stereo partly specified), the “% Inhibition” value stood at 2% and the Z score is reported as -0.23.
As to `CN(C)c1nc(CN[C@@H](Cc2ccccc2)c2ccccc2)ns1`, the “% Inhibition” value is reported as -6% and the Z score was determined as 0.72.
For the compound `Cc1ccc(-n2nc(C)c(CC(=O)N3CCN(c4cccc(C)c4C)CC3)c2C)cc1C`, the “% Inhibition” value is -11% and the Z score turned out to be 1.37.
